# Results published in the supplement of paper PMC8728848.
# This is one part of the list.
# B1: AAL (Aleuria aurantia) (protein)
# chain: MPTEFLYTSKIAAISWAATGGRQQRVYFQDLNGKIREAQRGGDNPWTGGSSQNVIGEAKLFSPLAAVTWKSAQGIQIRVYCVNKDNILSEFVYDGSKWITGQLGSVGVKVGSNSKLAALQWGGSESAPPNIRVYYQKSNGSGSSIHEYVWSGKWTAGASFGSTVPGTGIGATAIGPGRLRIYYQATDNKIREHCWDSNSWYVGGFSASASAGVSIAAISWGSTPQIRVYWQKGREELYEAAYGGSWNTPGQIKDASRPTPSLPDTFIAANSSGNIDISVFFQASGVSLQQWQWISGKGWSIGAVVPTGTPAGW
# Columns and labels:
# Assay in all cases: glycan array binding signal (z-score within array); higher = stronger binding
# Conditions in all cases: glycan notation: IUPAC condensed, linker removed; mutation: N224Q
# [1] = target: Gal(b1-4)GlcNAc(b1-3)Gal(b1-4)GlcNAc(b1-2)Man(a1-3)[Gal(b1-4)GlcNAc(b1-3)Gal(b1-4)GlcNAc(b1-2)Man(a1-6)]Man(b1-4)GlcNAc(b1-4)[Fuc(a1-6)]GlcNAc
# Summary of the method: (§1)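 From the Consortium for Functional Glycomics database, 3228 arrays were curated, keeping only those whose protein sequence was available. Binding is given as a within-array Z-score averaged across arrays sharing a protein sequence and across linkers. Negative Z-scores can be read as non-binding.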
# [2] = target: Gal(b1-4)GlcNAc(b1-3)Gal(b1-4)GlcNAc(b1-2)[Gal(b1-4)GlcNAc(b1-3)Gal(b1-4)GlcNAc(b1-6)]Man(a1-6)[Gal(b1-4)GlcNAc(b1-3)Gal(b1-4)GlcNAc(b1-2)Man(a1-3)]Man(b1-4)GlcNAc(b1-4)GlcNAc
# Summary of the method: as §1
# [3] = target: Gal(b1-4)GlcNAc(b1-3)Gal(b1-4)GlcNAc(b1-2)[Gal(b1-4)GlcNAc(b1-3)Gal(b1-4)GlcNAc(b1-6)]Man(a1-6)[Gal(b1-4)GlcNAc(b1-3)Gal(b1-4)GlcNAc(b1-2)Man(a1-3)]Man(b1-4)GlcNAc(b1-4)[Fuc(a1-6)]GlcNAc
# Summary of the method: as §1
# [4] = target: Gal(b1-4)GlcNAc(b1-3)Gal(b1-4)GlcNAc(b1-3)Gal(b1-4)GlcNAc
# Summary of the method: as §1
# [5] = target: Gal(b1-4)GlcNAc(b1-3)Gal(b1-4)GlcNAc(b1-3)Gal(b1-4)GlcNAc(b1-2)Man(a1-3)[Gal(b1-4)GlcNAc(b1-3)Gal(b1-4)GlcNAc(b1-3)Gal(b1-4)GlcNAc(b1-2)Man(a1-6)]Man(b1-4)GlcNAc(b1-4)GlcNAc
# Summary of the method: as §1
# [6] = target: Gal(b1-4)GlcNAc(b1-3)Gal(b1-4)GlcNAc(b1-3)Gal(b1-4)GlcNAc(b1-2)Man(a1-3)[Gal(b1-4)GlcNAc(b1-3)Gal(b1-4)GlcNAc(b1-3)Gal(b1-4)GlcNAc(b1-2)Man(a1-6)]Man(b1-4)GlcNAc(b1-4)[Fuc(a1-6)]GlcNAc
# Summary of the method: as §1
# [7] = target: Gal(b1-4)GlcNAc(b1-3)Gal(b1-4)GlcNAc(b1-3)Gal(b1-4)GlcNAc(b1-2)[Gal(b1-4)GlcNAc(b1-3)Gal(b1-4)GlcNAc(b1-3)Gal(b1-4)GlcNAc(b1-6)]Man(a1-6)[Gal(b1-4)GlcNAc(b1-3)Gal(b1-4)GlcNAc(b1-3)Gal(b1-4)GlcNAc(b1-2)Man(a1-3)]Man(b1-4)GlcNAc(b1-4)[Fuc(a1-6)]GlcNAc
# Summary of the method: as §1
# [8] = target: Gal(b1-4)GlcNAc(b1-3)Gal(b1-4)GlcNAc(b1-3)Gal(b1-4)GlcNAc(b1-3)Gal(b1-4)GlcNAc(b1-2)Man(a1-3)[Gal(b1-4)GlcNAc(b1-3)Gal(b1-4)GlcNAc(b1-3)Gal(b1-4)GlcNAc(b1-3)Gal(b1-4)GlcNAc(b1-2)Man(a1-6)]Man(b1-4)GlcNAc(b1-4)GlcNAc
# Summary of the method: as §1
# [9] = target: Gal(b1-4)GlcNAc(b1-3)Gal(b1-4)GlcNAc(b1-3)Gal(b1-4)GlcNAc(b1-3)Gal(b1-4)GlcNAc(b1-2)Man(a1-3)[Gal(b1-4)GlcNAc(b1-3)Gal(b1-4)GlcNAc(b1-3)Gal(b1-4)GlcNAc(b1-3)Gal(b1-4)GlcNAc(b1-2)Man(a1-6)]Man(b1-4)GlcNAc(b1-4)[Fuc(a1-6)]GlcNAc
# Summary of the method: as §1
# [10] = target: Gal(b1-4)GlcNAc(b1-3)Gal(b1-4)GlcNAc(b1-3)Gal(b1-4)GlcNAc(b1-3)Gal(b1-4)GlcNAc(b1-2)[Gal(b1-4)GlcNAc(b1-3)Gal(b1-4)GlcNAc(b1-3)Gal(b1-4)GlcNAc(b1-3)Gal(b1-4)GlcNAc(b1-6)]Man(a1-6)[Gal(b1-4)GlcNAc(b1-3)Gal(b1-4)GlcNAc(b1-3)Gal(b1-4)GlcNAc(b1-3)Gal(b1-4)GlcNAc(b1-2)Man(a1-3)]Man(b1-4)GlcNAc(b1-4)[Fuc(a1-6)]GlcNAc
# Summary of the method: as §1
# [11] = target: Gal(b1-4)GlcNAc(b1-3)Gal(b1-4)GlcNAc(b1-3)Gal(b1-4)GlcNAc(b1-3)Gal(b1-4)GlcNAc(b1-3)Gal(b1-4)GlcNAc(b1-2)Man(a1-3)[Gal(b1-4)GlcNAc(b1-3)Gal(b1-4)GlcNAc(b1-3)Gal(b1-4)GlcNAc(b1-3)Gal(b1-4)GlcNAc(b1-3)Gal(b1-4)GlcNAc(b1-2)Man(a1-6)]Man(b1-4)GlcNAc(b1-4)GlcNAc
# Summary of the method: as §1
# [12] = target: Gal(b1-4)GlcNAc(b1-3)Gal(b1-4)GlcNAc(b1-3)Gal(b1-4)GlcNAc(b1-3)Gal(b1-4)GlcNAc(b1-3)Gal(b1-4)GlcNAc(b1-2)Man(a1-3)[Gal(b1-4)GlcNAc(b1-3)Gal(b1-4)GlcNAc(b1-3)Gal(b1-4)GlcNAc(b1-3)Gal(b1-4)GlcNAc(b1-3)Gal(b1-4)GlcNAc(b1-2)Man(a1-6)]Man(b1-4)GlcNAc(b1-4)[Fuc(a1-6)]GlcNAc
# Summary of the method: as §1
# [13] = target: Gal(b1-4)GlcNAc(b1-3)Gal(b1-4)GlcNAc(b1-3)Gal(b1-4)GlcNAc(b1-3)Gal(b1-4)GlcNAc(b1-3)Gal(b1-4)GlcNAc(b1-2)[Gal(b1-4)GlcNAc(b1-3)Gal(b1-4)GlcNAc(b1-3)Gal(b1-4)GlcNAc(b1-3)Gal(b1-4)GlcNAc(b1-3)Gal(b1-4)GlcNAc(b1-6)]Man(a1-6)[Gal(b1-4)GlcNAc(b1-3)Gal(b1-4)GlcNAc(b1-3)Gal(b1-4)GlcNAc(b1-3)Gal(b1-4)GlcNAc(b1-3)Gal(b1-4)GlcNAc(b1-2)Man(a1-3)]Man(b1-4)GlcNAc(b1-4)[Fuc(a1-6)]GlcNAc
# Summary of the method: as §1
# [14] = target: Gal(b1-4)GlcNAc(b1-3)Gal(b1-4)GlcNAc(b1-3)Gal(b1-4)GlcNAc(b1-3)Gal(b1-4)GlcNAc(b1-3)Gal(b1-4)GlcNAc(b1-3)Gal(b1-4)GlcNAc(b1-2)Man(a1-3)[Gal(b1-4)GlcNAc(b1-3)Gal(b1-4)GlcNAc(b1-3)Gal(b1-4)GlcNAc(b1-3)Gal(b1-4)GlcNAc(b1-3)Gal(b1-4)GlcNAc(b1-3)Gal(b1-4)GlcNAc(b1-2)Man(a1-6)]Man(b1-4)GlcNAc(b1-4)GlcNAc
# Summary of the method: as §1
# [15] = target: Gal(b1-4)GlcNAc(b1-3)Gal(b1-4)GlcNAc(b1-3)GalNAc
# Summary of the method: as §1
# [16] = target: Gal(b1-4)GlcNAc(b1-3)Gal(b1-4)GlcNAc(b1-3)[Gal(b1-4)GlcNAc(b1-3)Gal(b1-4)GlcNAc(b1-6)]GalNAc
# Summary of the method: as §1
# [17] = target: Gal(b1-4)GlcNAc(b1-3)Gal(b1-4)GlcNAc(b1-6)[Gal(b1-3)]GalNAc
# Summary of the method: as §1
# [18] = target: Gal(b1-4)GlcNAc(b1-3)Gal(b1-4)[Fuc(a1-3)]GlcNAc(b1-3)Gal(b1-4)[Fuc(a1-3)]GlcNAc
# Summary of the method: as §1
# [19] = target: Gal(b1-4)GlcNAc(b1-3)GalNAc
# Summary of the method: as §1
# [20] = target: Gal(b1-4)GlcNAc(b1-3)[Fuc(a1-3)GlcNAc(b1-6)]Gal(b1-4)Glc
# Summary of the method: as §1
# [21] = target: Gal(b1-4)GlcNAc(b1-3)[Gal(b1-4)GlcNAc(b1-6)]Gal(b1-4)GlcNAc
# Summary of the method: as §1
# [22] = target: Gal(b1-4)GlcNAc(b1-3)[GlcNAc(b1-6)]Gal(b1-4)GlcNAc
# Summary of the method: as §1
# [23] = target: Gal(b1-4)GlcNAc(b1-6)Gal(b1-4)GlcNAc
# Summary of the method: as §1
# [24] = target: Gal(b1-4)GlcNAc(b1-6)GalNAc
# Summary of the method: as §1
# [25] = target: Gal(b1-4)GlcNAc(b1-6)[Gal(b1-3)]GalNAc
# Summary of the method: as §1
# [26] = target: Gal(b1-4)GlcNAc(b1-6)[Gal(b1-4)GlcNAc(b1-3)]GalNAc
# Summary of the method: as §1
# Gal(b1-4)GlcNAc6P = target: Gal(b1-4)GlcNAc6P
# Summary of the method: as §1
# Gal(b1-6)Gal = target: Gal(b1-6)Gal
# Summary of the method: as §1
# Gal3S(b1-3)GalNAc = target: Gal3S(b1-3)GalNAc
# Summary of the method: as §1
# Gal3S(b1-3)GlcNAc = target: Gal3S(b1-3)GlcNAc
# Summary of the method: as §1
# [27] = target: Gal3S(b1-3)[Fuc(a1-4)]GlcNAc
# Summary of the method: as §1
# Gal3S(b1-4)Glc = target: Gal3S(b1-4)Glc
# Summary of the method: as §1
# Gal3S(b1-4)Glc6S = target: Gal3S(b1-4)Glc6S
# Summary of the method: as §1
# Gal3S(b1-4)GlcNAc = target: Gal3S(b1-4)GlcNAc
# Summary of the method: as §1
# [28] = target: Gal3S(b1-4)[Fuc(a1-3)]Glc6S
# Summary of the method: as §1
# [29] = target: Gal3S(b1-4)[Fuc(a1-3)]GlcNAc
# Summary of the method: as §1
# [30] = target: Gal3S(b1-4)[Fuc(a1-3)]GlcNAc6S
# Summary of the method: as §1
binder,measurement,setting,value
B1,glycan array binding signal (z-score),[1],1.26
same,glycan array binding signal (z-score),[2],-0.263
same,glycan array binding signal (z-score),[3],0.135
same,glycan array binding signal (z-score),[4],-0.306
same,glycan array binding signal (z-score),[5],-0.195
same,glycan array binding signal (z-score),[6],1.85
same,glycan array binding signal (z-score),[7],-0.092
same,glycan array binding signal (z-score),[8],-0.275
same,glycan array binding signal (z-score),[9],1.58
same,glycan array binding signal (z-score),[10],-0.229
same,glycan array binding signal (z-score),[11],-0.237
same,glycan array binding signal (z-score),[12],1.62
same,glycan array binding signal (z-score),[13],-0.248
same,glycan array binding signal (z-score),[14],-0.19
same,glycan array binding signal (z-score),[15],-0.224
same,glycan array binding signal (z-score),[16],-0.068
same,glycan array binding signal (z-score),[17],-0.261
same,glycan array binding signal (z-score),[18],0.142
same,glycan array binding signal (z-score),[19],-0.318
same,glycan array binding signal (z-score),[20],-0.2
same,glycan array binding signal (z-score),[21],-0.318
same,glycan array binding signal (z-score),[22],-0.293
same,glycan array binding signal (z-score),[23],-0.317
same,glycan array binding signal (z-score),[24],-0.317
same,glycan array binding signal (z-score),[25],-0.301
same,glycan array binding signal (z-score),[26],-0.316
same,glycan array binding signal (z-score),Gal(b1-4)GlcNAc6P,-0.312
same,glycan array binding signal (z-score),Gal(b1-6)Gal,-0.31
same,glycan array binding signal (z-score),Gal3S(b1-3)GalNAc,-0.332
same,glycan array binding signal (z-score),Gal3S(b1-3)GlcNAc,-0.353
same,glycan array binding signal (z-score),[27],0.764
same,glycan array binding signal (z-score),Gal3S(b1-4)Glc,-0.321
same,glycan array binding signal (z-score),Gal3S(b1-4)Glc6S,-0.32
same,glycan array binding signal (z-score),Gal3S(b1-4)GlcNAc,-0.328
same,glycan array binding signal (z-score),[28],0.201
same,glycan array binding signal (z-score),[29],2.34
same,glycan array binding signal (z-score),[30],-0.326
